{"source": "patent US20260176310A1", "about": "(NAVIGO PROTEINS, published 2026)", "binders": {"B1": {"name": "Affilin®-223077 (designed binder)", "chain": "MQIFVWTDDWKRITLEVEPSDTIENVKAKIQDKEGIPPDQQVLAWRGKQLEDDRTLSDYNIMVWPNLWLRLRAA", "notes": "Ubiquitin mutein"}, "B2": {"name": "Affilin®-223078 (designed binder)", "chain": "B1 chain with T14I, D53S", "notes": "Ubiquitin mutein"}, "B3": {"name": "Affilin®-219235 (designed binder)", "chain": "MQIFVYTMREKQITLEVEPSDTIENVKAKIQDKEGIPPDQQDLKWKGKQLEDGRTLSDYNIFWFPHLTLGLSLRAA", "notes": "Ubiquitin mutein"}, "B4": {"name": "Affilin®-217832 (designed binder)", "chain": "MQIFVWTRINKLITLEVEPSDTIENVKAKIQDKEGIPPDQQSLYWKGKQLEDGRTLSDYNINIWPNLYLSLRAA", "notes": "Ubiquitin mutein"}}, "key": {"[1]": {"molecular_target": "T1, hCD26 expressed on HEK293-hCD26 cells (human, UniProt P27487 1-766)", "T1 construct": "whole, on cells", "assay": "flow cytometry on HEK293-hCD26 cells", "protocol": "(§1) Flow cytometry was used to analyze the interaction of FAP binding proteins with cell surface-exposed hFAP and mFAP. FAP overexpressing human embryonic kidney cell line HEK293, CD26-overexpressing HEK293-cells, native FAP expressing cell line Wi38 and empty vector control HEK293-pEntry cells were used. The anti-hFAP antibody (R&D Systems, MAB3715-100) with a concentration of 1 μg/ml in combination with anti-mouse-IgG-Alexa488 (Invitrogen, A10680) with a 1:1000 dilution was used as positive control for hFAP-expressing cells. Anti-mFAP antibody (R&D Systems, MAB9727) with a concentration of 1 μg/ml in combination with anti-rat-IgG-Alexa488 (Invitrogen, A11006) with a dilution of 1:1000 was used as positive control for mFAP-expressing cells.\n(§2) Cells were trypsinized and resupended in medium containing FCS, washed and stained in pre-cooled FACS blocking buffer (3% FCS/PBS). A suspension with a cell concentration of 1×10⁶ cells/ml was prepared for cell staining and filled with 100 μl/well into a 96 well plate (Greiner) in triplicate for each cell line.\n(§3) Affilin® proteins were tested with a concentration of 1 μM, 100 nM, 10 nM, or 1 nM on FAP expressing cells HEK293-hFAP, HEK293-mFAP and Wi38-cells. To exclude an unspecific binding, Affilin® proteins were also incubated on CD26 expressing cells HEK293-hCD26 and HEK293-mCD26 and control cells HEK293-pEntry with the same concentrations. […] Supernatants were removed after 45 min, cells were washed in blocking buffer and 100 μl/well rabbit anti-StrepTag antibody (GenScript; A00626), 1:300 diluted in FACS blocking buffer were added. After removal of the primary antibody, goat anti-rabbit-IgG-Alexa Fluor 488 antibody (Invitrogen; A11008) was applied in a 1:1000 dilution. Flow cytometry measurement was conducted on the Guava easyCyte 5HT device from Merck-Millipore at excitation wavelength 488 nm and emission wavelength 525/30 nm."}, "[2]": {"molecular_target": "T2, mCD26 expressed on HEK293-mCD26 cells (mouse, UniProt P28843 1-760)", "T2 construct": "whole, on cells", "assay": "flow cytometry on HEK293-mCD26 cells", "protocol": "as §1, §2, §3"}, "hCD26-Fc": {"molecular_target": "T3, hCD26-Fc (human, UniProt P27487 29-766, limits assumed)", "T3 construct": "Off-target in SPR; the in-house construct is not described further; also called hCD26-Fc-His; not shown: Fc", "assay": "SPR, Fc-tagged CD26 captured on protein A", "protocol": "(§4) Recombinant protein A was immobilized on a High Capacity Amine sensor chip (Bruker) after NHS/EDC activation resulting in approx. 2000 RU with a Sierra SPR-32 system (Bruker). The chip was equilibrated with SPR running buffer (PBS 0.05%, Tween pH 7.3). Injection of ethanolamine after ligand immobilization was used to block unreacted NHS groups. The Fc-tagged FAP and CD26 target molecules were injected with 60 nM followed by the injection of FAP binding proteins. Upon binding, target analyte was accumulated on the surface increasing the refractive index. This change in the refractive index was measured in real time and plotted as response or resonance units versus time. The FAP binding proteins were applied to the chip in serial dilutions with a flow rate of 30 μl/min. The association was performed for 120 seconds and the dissociation for 180 seconds. After each run, the chip surface was regenerated with 30 μl regeneration buffer (10 mM glycine pH 2.0) and equilibrated with running buffer. Binding studies were carried out by the use of the Sierra SPR-32 system (Bruker); data evaluation was operated via the Sierra Analyser software, provided by the manufacturer, by the use of the Langmuir 1:1 model (RI=0). Evaluated dissociation constants (KD) were standardized against the immobilized protein and indicated."}, "mCD26-Fc": {"molecular_target": "T4, mCD26-Fc (mouse, UniProt P28843 29-760, limits assumed)", "T4 construct": "Off-target in SPR; construct not described further; also called mCD26-Fc-His; not shown: Fc", "assay": "SPR, Fc-tagged CD26 captured on protein A", "protocol": "as §4"}, "mFAP-Fc": {"molecular_target": "T5, mFAP-Fc (mouse, UniProt P97321 26-761)", "T5 construct": "extracellular domain; Made in house in ExpiCHO cells; also called mFAP-Fc-His; mouse FAP; not shown: IgG1-Fc", "T5 sequence (looked up)": "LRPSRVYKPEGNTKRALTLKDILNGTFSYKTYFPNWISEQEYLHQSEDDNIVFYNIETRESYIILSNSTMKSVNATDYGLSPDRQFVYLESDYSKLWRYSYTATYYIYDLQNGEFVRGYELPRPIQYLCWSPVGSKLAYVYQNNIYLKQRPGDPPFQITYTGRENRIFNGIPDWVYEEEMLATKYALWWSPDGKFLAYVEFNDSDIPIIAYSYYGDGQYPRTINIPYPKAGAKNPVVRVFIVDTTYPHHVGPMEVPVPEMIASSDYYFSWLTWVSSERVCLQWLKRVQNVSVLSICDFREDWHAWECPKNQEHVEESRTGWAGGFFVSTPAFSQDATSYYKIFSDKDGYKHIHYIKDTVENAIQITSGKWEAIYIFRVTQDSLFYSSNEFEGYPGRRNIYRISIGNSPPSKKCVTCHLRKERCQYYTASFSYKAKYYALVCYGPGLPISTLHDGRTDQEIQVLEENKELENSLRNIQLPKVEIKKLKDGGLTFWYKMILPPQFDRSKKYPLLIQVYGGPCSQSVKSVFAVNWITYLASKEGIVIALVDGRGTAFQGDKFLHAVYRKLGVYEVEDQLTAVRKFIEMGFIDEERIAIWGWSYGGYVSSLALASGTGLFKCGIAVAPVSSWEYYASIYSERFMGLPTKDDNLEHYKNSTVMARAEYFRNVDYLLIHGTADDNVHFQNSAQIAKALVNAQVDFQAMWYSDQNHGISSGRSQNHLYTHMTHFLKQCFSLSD", "assay": "SPR, Fc-tagged target captured on protein A", "protocol": "as §4"}, "hFAP-Fc [3]": {"molecular_target": "T6, hFAP-Fc (human, UniProt Q12884 26-760)", "T6 construct": "extracellular domain; Made in house in Expi293-F cells; also called hFAP-Fc-His; human FAP; not shown: IgG1-Fc", "T6 sequence (looked up)": "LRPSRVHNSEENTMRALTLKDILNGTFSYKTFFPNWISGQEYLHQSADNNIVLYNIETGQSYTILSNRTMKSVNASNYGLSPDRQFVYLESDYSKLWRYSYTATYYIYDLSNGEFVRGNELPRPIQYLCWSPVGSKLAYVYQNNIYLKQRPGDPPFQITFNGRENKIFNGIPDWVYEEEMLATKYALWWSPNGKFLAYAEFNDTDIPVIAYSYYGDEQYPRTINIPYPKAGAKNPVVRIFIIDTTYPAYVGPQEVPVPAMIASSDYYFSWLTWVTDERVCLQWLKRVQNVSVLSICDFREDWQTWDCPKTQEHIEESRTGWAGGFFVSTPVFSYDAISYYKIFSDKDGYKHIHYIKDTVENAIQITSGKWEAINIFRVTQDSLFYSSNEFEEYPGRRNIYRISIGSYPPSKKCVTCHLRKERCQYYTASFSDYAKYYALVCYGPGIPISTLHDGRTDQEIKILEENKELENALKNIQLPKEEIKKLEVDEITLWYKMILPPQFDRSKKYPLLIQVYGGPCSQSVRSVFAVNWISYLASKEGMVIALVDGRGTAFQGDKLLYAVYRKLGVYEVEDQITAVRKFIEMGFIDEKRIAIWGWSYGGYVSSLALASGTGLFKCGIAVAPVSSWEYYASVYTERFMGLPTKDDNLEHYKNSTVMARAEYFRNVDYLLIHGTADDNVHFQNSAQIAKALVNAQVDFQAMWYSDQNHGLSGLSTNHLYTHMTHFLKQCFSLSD", "assay": "SPR (Sierra SPR-32), hFAP-Fc captured on protein A, 1:1 Langmuir", "protocol": "as §4"}, "hFAP-Fc [4]": {"molecular_target": "T6, hFAP-Fc", "assay": "ELISA on coated hFAP-Fc; Affilin in human serum, 0 h", "protocol": "(§5) High binding plates (Greiner, 781061) were immobilized with 2.5 μg/ml hFAP-Fc over night at 4° C. Dilution series of 3 µM to 0.07 PM of Affilin® proteins were incubated in 100% human serum or 100% mouse serum for 24 h at 37° C.\n(§6) ELISA-plates were washed three times with PBST (PBS+ 0.1% Tween) and blocked with 3% BSA/0.5% Tween/PBS 1 h at rt. After preincubation for 0 h or 24 h in the presence of serum the dilution series were incubated on ELISA-plates for 30 min at room temperature (rt). Wells were washed with PBST and incubated with biotinylated anti-ubiquitin-antibody (1:300) for 30 min at rt. The binding was visualized with Streptavidin-HRP (1:5.000). […] ELISA analysis confirmed the high stability of FAP binding proteins in serum."}, "hFAP-Fc [5]": {"molecular_target": "T6, hFAP-Fc", "assay": "ELISA on coated hFAP-Fc; Affilin in mouse serum, 0 h", "protocol": "as §5, §6"}, "hFAP-Fc [6]": {"molecular_target": "T6, hFAP-Fc", "assay": "ELISA on coated hFAP-Fc; Affilin in human serum, 24 h at 37° C.", "protocol": "as §5, §6"}, "hFAP-Fc [7]": {"molecular_target": "T6, hFAP-Fc", "assay": "ELISA on coated hFAP-Fc; Affilin in mouse serum, 24 h at 37° C.", "protocol": "as §5, §6"}, "hFAP-Fc [8]": {"molecular_target": "T6, hFAP-Fc", "assay": "SPR, hFAP immobilized on a CM-5 chip, 1:1 Langmuir (legend of FIG. 1B); hFAP immobilized on a CM-5 chip; legend of FIG. 1B"}}, "note": "Numbering of substitutions follows the chain as printed."}
{"binder": "B1", "values": [{"measurement": "binding result", "setting": "[1]", "result": "no binding (tested: 1 µM, 100 nM, 10 nM, or 1 nM)"}, {"measurement": "binding result", "setting": "[2]", "result": "no binding (tested: 1 µM, 100 nM, 10 nM, or 1 nM)"}, {"measurement": "binding result", "setting": "hCD26-Fc", "result": "no binding"}, {"measurement": "binding result", "setting": "mCD26-Fc", "result": "no binding"}, {"measurement": "Kd", "setting": "mFAP-Fc", "result": 5, "unit": "nM"}, {"measurement": "Kd", "setting": "hFAP-Fc [3]", "result": 3, "unit": "nM"}]}
{"binder": "B2", "values": [{"measurement": "binding result", "setting": "[1]", "result": "no binding (tested: 1 µM, 100 nM, 10 nM, or 1 nM)"}, {"measurement": "binding result", "setting": "[2]", "result": "no binding (tested: 1 µM, 100 nM, 10 nM, or 1 nM)"}, {"measurement": "binding result", "setting": "hCD26-Fc", "result": "no binding"}, {"measurement": "binding result", "setting": "mCD26-Fc", "result": "no binding"}, {"measurement": "Kd", "setting": "mFAP-Fc", "result": 3, "unit": "nM"}, {"measurement": "Kd", "setting": "hFAP-Fc [3]", "result": 2, "unit": "nM"}]}
{"binder": "B3", "values": [{"measurement": "binding result", "setting": "[1]", "result": "no binding (tested: 1 µM, 100 nM, 10 nM, or 1 nM)"}, {"measurement": "binding result", "setting": "[2]", "result": "no binding (tested: 1 µM, 100 nM, 10 nM, or 1 nM)"}, {"measurement": "binding result", "setting": "hCD26-Fc", "result": "no binding"}, {"measurement": "binding result", "setting": "mCD26-Fc", "result": "no binding"}, {"measurement": "Kd", "setting": "mFAP-Fc", "result": 21.6, "unit": "nM"}, {"measurement": "Kd", "setting": "hFAP-Fc [3]", "result": 5.1, "unit": "nM"}]}
{"binder": "B4", "values": [{"measurement": "binding result", "setting": "[1]", "result": "no binding (tested: 1 µM, 100 nM, 10 nM, or 1 nM)"}, {"measurement": "binding result", "setting": "[2]", "result": "no binding (tested: 1 µM, 100 nM, 10 nM, or 1 nM)"}, {"measurement": "binding result", "setting": "hCD26-Fc", "result": "no binding"}, {"measurement": "binding result", "setting": "mCD26-Fc", "result": "no binding"}, {"measurement": "Kd", "setting": "hFAP-Fc [4]", "result": 0.4, "unit": "nM"}, {"measurement": "Kd", "setting": "hFAP-Fc [5]", "result": 0.3, "unit": "nM"}, {"measurement": "Kd", "setting": "hFAP-Fc [6]", "result": 0.5, "unit": "nM"}, {"measurement": "Kd", "setting": "hFAP-Fc [7]", "result": 0.7, "unit": "nM"}, {"measurement": "Kd", "setting": "hFAP-Fc [3]", "result": 3.2, "unit": "nM"}, {"measurement": "Kd", "setting": "hFAP-Fc [8]", "result": 3, "unit": "nM"}]}
